Source: PubChem BioAssay AID1508623 (National Center for Advancing Translational Sciences (NCATS), 2021)
The campaign covered roughly 48,000 compounds. About 450 (0.94%) were called active. Not shown: some 19% with an inconclusive outcome. Calls come from the whole dose curve; as a rule, active = well fitted inhibition curve with a large enough effect; inconclusive = small, poorly fitted or top-dose-only effect; inactive = no such curve, though single readings can be large or run the other way. The list shows a part of the results.

assay: Primary qHTS for Identification of Small Molecule Inhibitors of Huntingtin Promoter Activity; conditions: HEK293 HTT promoter firefly luciferase reporter (activity 0% = vehicle and -100% = no light), 24 h; series mostly up to 57.5 µM; activity change, negative = inhibition: at the top concentration; note: nearly all actives have a fitted effect of over 50% in size
How it was run: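 HEK293 luciferase promoter-reporter cells (2,500/well) plated 24 h, then compounds added at up to 57.5 uM final for 24 h at 37 °C. Firefly luminescence by Dual-Glo, normalized to vehicle (0%) and zero RLU (-100%).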

Activity change, negative = inhibition, inactive:
CC(C)CC(=O)Nc1c(C(=O)N2CCN(c3ccccc3F)CC2)oc2ccccc12 -27.4%
CC(=O)c1ccc(N2CCN(C(=O)Nc3cccc(F)c3)CC2)cc1 -12.9%
CC(C)Oc1ccc(CNC(=O)CCCn2c(=O)c3cccn3c3cccnc32)cc1 -15.4%
O=C(c1ccccc1)C(O)c1ccccc1 (configuration not stated) -0.643%
O=C(NCc1ccc2c(c1)CCN2C(=O)c1ccncc1)c1ccc(Cl)cc1 -22%
Cc1ccc2c(=O)c(C(=O)c3ccccc3)cn(CC(=O)Nc3ccccc3)c2n1 -12.1%
Cc1c(Cl)cccc1NC(=O)CN1C(=O)CCn2nc(-c3cccn3C)cc21 -3.81%
COCCN(CCOC)C(=O)c1cc2c(=O)n3ccccc3nc2n1C -7.33%
CCOC(=O)C(Cc1c[nH]c2ccccc12)NC(=O)COc1ccc(Cl)cc1 (configuration not stated) -17.4%
CCn1c(NCc2cccc(Cl)c2)nc2ccccc21 -12.7%
COc1cc(-c2nc3ccc(C)cn3c2Nc2ccc(Cl)cc2)ccc1O -6.73%
COc1cccc(C(=O)NC2=NC(c3ccc(N(C)C)cc3)CC(=O)N2)c1 (configuration not stated) -0.0305%
O=C(NCCCN1CCCCC1)c1cc(Sc2ccc(Cl)cc2)nc2ccccc12 -24.7%
Cc1ccc(Cn2c(C(=O)O)c(CNCCc3ccco3)c3ccc(C)cc32)cc1 -13.3%
Cc1c[nH]c2ccccc12 2.05%
COc1ccc(-n2c(=O)c3ccc(C(=O)NCc4ccc(C)cc4)cc3n(CC(=O)Nc3ccc(C)cc3)c2=O)cc1 -25.7%
O=S(=O)(c1ccc(Br)cc1)c1nnn2c1nc(NCc1cccs1)c1sccc12 -6.45%
CC(=O)c1ccc(N2CCN(C3C(=O)c4ccccc4N3C(C)=O)CC2)cc1 (configuration not stated) -8.55%
COc1ccc(-c2cc(C(=O)NCCc3ccccc3)c3cc(C(C)C)ccc3n2)cc1 13.4%
NC(=O)c1cccc2cn(-c3ccc([C@@H]4CCCNC4)cc3)nc12 11.6%
CCOc1cc(-c2nc(-c3ccc(-c4ccc(OC)cc4)nc3OC)no2)cc(OCC)c1OCC 2.77%
COCCCNC(=O)C1CCN(c2cc(C)nc3c(-c4ccc(OC)c(OC)c4)c(C)nn23)CC1 -10.8%
COc1ccc(Cl)cc1NC(=O)c1nn(C)c2c1CS(=O)(=O)c1ccccc1-2 -1.06%
COc1ccccc1NC(=O)CCn1c(=O)oc2cc(Cl)ccc21 -2.13%
COc1ccc(-n2cc(C(=O)NCc3cccc(OC)c3)c3ccccc3c2=O)cc1 3.03%
O=C(CSc1nc(=O)n(Cc2ccco2)c2c1CCC2)NCc1ccc(F)cc1 -0.579%
CC1=C(C(=O)Nc2ccccc2C)C(c2ccccn2)n2nc(SCc3ccccc3F)nc2N1 (configuration not stated) -10.2%
Cc1nc2nc(NC(=O)c3ccc(Cl)cc3)[nH]n2c(=O)c1Cc1ccccc1 -1.11%
O=c1[nH]c(SCc2ccc(Br)cc2)nc2c1CCCC2 -22.8%
Cc1ccc(S(=O)(=O)c2nnn3c2nc(N2CCN(c4ccccc4F)CC2)c2ccccc23)cc1C 1.01%
CC(NC(=O)Cn1c(-c2cccs2)cc2cc(F)ccc21)c1ccccc1 (configuration not stated) -25.4%
O=C(NC1CC(=O)N(c2ccc(Cl)cc2)C1)c1cccs1 (configuration not stated) -11.4%
C[C@H]1O[C@@H](n2cc(F)c(=O)[nH]c2=O)[C@H](O)[C@H]1O -5.24%
O=C(Cn1c(=O)n(Cc2ccc3c(c2)OCO3)c(=O)c2ccc(C(=O)NC3CCCCC3)cc21)Nc1ccccc1F -17.8%
COc1ccc(-c2cc(C(=O)Oc3ccc(C)c(C)c3)c3ccccc3n2)cc1 8.42%
Cc1cccn2c(=O)c3cc(C(=O)NCc4ccccc4Cl)sc3nc12 -12.6%
CCC(C)NC(=O)c1c(-c2ccccc2)c(-c2ccccc2)nn(C)c1=O (configuration not stated) -8.09%
Cc1ccc(C(=O)NC2(C(F)(F)F)C(=O)Nc3c2c(=O)[nH]c(=O)n3CCc2ccccc2)cc1 (configuration not stated) -3.09%
CCOC(=O)c1cc(-c2ccccc2)n(CCCC(=O)Nc2ccc(C)cc2C)c1C -26.6%
Cc1c(C(=O)N2CCC(C(=O)Nc3ccc(F)cc3)CC2)sc2nc[nH]c(=O)c12 -9.02%
Cc1cccc(-n2c3nc(=O)n(C)c(=O)c-3cc3ccc(Cl)cc32)c1C -7.52%
Oc1cccc(Nc2ncnc3sc4c(c23)CCCC4)c1 -25.6%
CS(=O)(=O)N1CCc2cc(C(=O)NCc3ccccc3)ccc21 -5.7%
CC(C)(C)C(=O)N1CCN(c2nc3c(F)cccc3s2)CC1 7.42%
CCOc1ccc(-n2c(SCC(=O)N3CCCCC3)nc3c([nH]c4ccccc43)c2=O)cc1 -6.38%
COc1ccc(N2CCN(C(=O)c3nc(-c4ccc(Cl)cc4)n4c3CCCCC4)CC2)cc1 -12% [at 11.5 µM]
Cc1ccc(Cl)cc1N1CCN(CCNC(=O)Nc2ccc(Cl)cc2)CC1 -43.3%
O=C(C1CCN(S(=O)(=O)c2cccc3nonc23)CC1)N1CCN(c2ccccc2)CC1 -16.6%
COc1ccc(NC(=O)c2nnn(Cc3ccc(Br)cc3F)c2N)c(OC)c1 -11.8%
CCOc1ccc(CNC(=O)c2ccc(CS(=O)c3ccccc3)o2)cc1 (configuration not stated) -8.07%
CS(=O)(=O)N1CCc2cc(C(=O)N3CCN(c4ccc(F)cc4)CC3)ccc21 -24.9%
Cc1ccc(N2CC(NC(=O)c3ccc4c(c3)OCO4)CC2=O)cc1 (configuration not stated) -16.1%
Cc1ccccc1NC(=O)Cn1nc(-c2ccc(F)cc2)c2cnc3ccccc3c21 -1.68%
CC(=O)N1CCCc2ccc(NS(=O)(=O)c3ccc(F)cc3F)cc21 -17%
CCOc1ccc(-c2c(C)nn3c(C)c(C(=O)NCc4ccc(C)o4)cnc23)cc1OCC -10.4%
Cc1ccc2nc(NC(=O)c3cc(=O)c4cc(Cl)ccc4o3)sc2c1 -14.2%
CCc1ccccc1NC(=O)CSc1nnc(CC)c(CC)n1 -19.9%
CC(=O)N1CCc2c(sc3c2c(=O)n(-c2ccc(C)cc2)c(=O)n3CC(=O)Nc2ccccc2)C1 35.1%
COc1ccccc1NC(=O)c1c(NC(=O)c2ccccc2F)sc2c1CCC2 -15.1% [at 11.5 µM]
COC(=O)c1c(NC(=O)c2ccccc2C(=O)O)sc2c1CCCC2 2.21%
Cc1ccc(-c2cc(C(=O)NCc3ccccc3)c3c(-c4ccc(C)cc4)[nH]nc3n2)cc1 -15.1%
COc1ccc(N2CCN(C(=O)c3ccc4c(c3)CCN4S(C)(=O)=O)CC2)cc1 -9.91%
